Experimental data reported in PubChem BioAssay (NCI).
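Growth conditions: 96-well plates. Treatment: test compound, 48 hours, 5 concentrations. Analysis: linear interpolation between bracketing concentrations; unreached endpoints set to highest concentration. GI50: concentration for 50% inhibition of growth. TGI: concentration producing complete growth inhibition.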

Each compound was assayed on NCI-H322M lung (assay: growth of human tumour cells (NCI), 48 h).
Compound `NS(=O)(=O)c1ccc(N(/C=C/C(=O)C(F)(F)F)CC(=O)c2ccc(F)cc2)cc1` has a GI50 of 27 µM and a TGI of 76.7 µM.
For `COc1ccc(N2C(=O)c3cc([N+](=O)[O-])cnc3S2(=O)=O)cc1`, the TGI was > 100 µM.
For `C/C(=N/NC(=O)c1ccncc1)C(F)(F)F`, the TGI was > 100 µM.
In the case of `CCCc1nnc2sc(COc3ccc(OCc4nn5c(CCC)nnc5s4)c(Cl)c3)nn12`, the TGI is reported as > 100 µM.
`Cc1nc2ccc(F)cc2c2c1CCS2` was tested, and the TGI was > 100 µM.
For `Clc1ccc(/C=C/c2nc(-c3ccccc3)cn3c2nc2ccccc23)cc1Cl`, the TGI was > 100 µM.
`Cc1cn([C@@H]2O[C@H](CO[Si](C)(C)C(C)(C)C)[C@]3(O[C@H]3C(=O)NO)[C@H]2O[Si](C)(C)C(C)(C)C)c(=O)[nH]c1=O` was tested, and the TGI was 3.16 µM.
`Cc1cccc(Nc2nc3ccccc3nc2NS(=O)(=O)c2ccc(N)cc2)c1` was tested, and the TGI was > 100 µM.
`CCC(=C(c1ccc(OCCN2CCCCC2)cc1)c1ccc(OCCN2CCCCC2)cc1)c1ccc(Cl)cc1` was tested, and the GI50 was 13.4 µM and the TGI was > 16.7 µM.
Compound `COc1ccc(C2=NN(C(N)=S)C(c3ccc4c(c3)OCO4)C2)cc1` (stereo not given) has a GI50 of 2.51 µM and a TGI of 8.19 µM.
In the case of `COC(=O)C(=O)C(C#N)c1nc2ccccc2s1` (stereo not given), the TGI is reported as > 100 µM.
With `CN(C)c1cccc(-c2cc(=S)c3cc4c(cc3[nH]2)OCO4)c1` the TGI was > 100 µM.
For `Cc1nnc2n1N=C(c1cc(F)c(Cl)cc1Cl)/C(=C/c1ccc(-c3ccc([N+](=O)[O-])cc3)o1)S2`, the TGI was > 100 µM.
In the case of `C[C@@H]1CN2[C@H]3[C@@H]1CC[C@]31CCC(=O)O[C@]1(C)[C@H]1CC[C@H]3CCC=C3[C@@H]12`, the GI50 is reported as > 30 µM and the TGI is reported as > 30 µM.
For `O=C1c2ccccc2C(=O)N1/N=C1/SC(=Nc2ccccc2)C(=Nc2ccccc2)N1c1ccccc1`, the TGI was > 100 µM.
`O=C1C=CC2(C=C1)O[C@H](COCc1ccccc1)[C@@H](COCc1ccccc1)O2` was tested, and the TGI was 31.5 µM.
Work on `CC(C)=CCC/C(C)=C/CC/C(C)=C/CSC[C@H](NC(=O)CCCCCN1CCN(C)CC1)C(=O)NC1CCCCCC1` yielded a GI50 of 2.88 µM and a TGI of 10.1 µM.
For `C[N+]1(C)C2CC(OC(=O)C(CO)c3ccccc3)CC1C1OC12` (stereo not given), the TGI was > 100 µM.
Work on `CC1=C(CCCOC(=O)[C@H](N)CC(C)C)C2=C(C)C3(CC3)[C@@](C)(O)C(=O)C2=C1` yielded a GI50 of 2.07 µM and a TGI of 7.06 µM.
`O=C1C2C3CC4C5C3C1C5C1(SCCS1)C42` (stereo not given) was tested, and the TGI was > 100 µM.
`CC(C)(C)C(=O)/C=C(\OB(F)F)C(C)(C)C` was tested, and the TGI was > 100 µM.
With `C=CC1(C)CCC2C(=CCC3C2(C)CC(O)C(O)C3(C)COC2OC(CO)C(O)C(O)C2O)C1` (stereo not given) the TGI was > 100 µM.
In the case of `C=CCC1(O)c2ccccc2C(=O)c2c(OCC(=O)OCC)ccc(OCC(=O)OCC)c21` (stereo not given), the GI50 is reported as > 100 µM and the TGI is reported as > 100 µM.
With `N#CC(C(=O)CCCC(=O)Nc1ccccc1[N+](=O)[O-])c1c(Cl)cccc1Cl` (stereo not given) the TGI was > 100 µM.
In the case of `COc1ccc(C2COc3c(ccc(OC)c3OC)C2=O)cc1OC` (stereo not given), the TGI is reported as > 100 µM.
With `CN1CCN(Cn2nc(COc3ccccc3Cl)n(/N=C/c3ccc(-c4ccc(Cl)cc4Cl)o3)c2=S)CC1` the TGI was > 100 µM.
With `CC(=O)CCC#Cc1ccccc1C(=O)C(C)=[N+]=[N-]` the TGI was > 100 µM.
`O=C(/C=C\c1ccc(O)c(O)c1)c1ccccc1O` was tested, and the GI50 was 16.4 µM and the TGI was 65.1 µM.
`CS(=O)(=O)OCCN(CCOS(C)(=O)=O)c1ccc(C=Nc2ccc(-c3csc(COc4ccccc4)n3)cc2)cc1` gave a TGI of 26.2 µM.
In the case of `CC(CN1NC12CCCC2)N1NC12CCCC2` (stereo not given), the TGI is reported as > 100 µM.
For `N#CCCNc1nonc1-c1nc2ccccc2n1CC(=O)c1ccc(N)cc1`, the GI50 was > 100 µM and the TGI was > 100 µM.
With `Cc1ccc(S(=O)(=O)n2cc(/C=C/C#N)c(-c3cn(S(=O)(=O)c4ccc(C)cc4)cc3-c3cn(S(=O)(=O)c4ccc(C)cc4)cc3/C=C/C#N)c2)cc1` the TGI was > 100 µM.
`Cc1ccc(S(=O)(=O)NNC(=O)Nc2cccc(C(F)(F)F)c2)cc1` was tested, and the TGI was > 100 µM.
In the case of `O=C1NN2CC(c3ccccc3)=NN=C2c2ccccc21`, the GI50 is reported as 20.6 µM and the TGI is reported as 56.7 µM.
`CCOc1ccc(N(C)c2ccc(/C=C/C3=[N+](C)c4ccccc4C3(C)C)cc2)cc1` showed a GI50 of 0.827 µM and a TGI of 6.71 µM.
With `COc1cc2nc3n(c2cc1OC)C(O)c1c(Cl)nc(SC)nc1S3` (stereo not given) the TGI was 32.4 µM.
`NC1=C(O)c2cccc3cccc(c23)C1=O` was tested, and the TGI was > 100 µM.
`C#CCN(Cc1ccc2nc(-c3ccccc3)c(Cl)nc2c1)c1ccc(F)cc1` was tested, and the TGI was > 100 µM.
`CC(C)(C)[Si](C)(C)OCC1OC(n2cnc3c(N)ncnc32)C2OC(=S)OC12` (stereo not given) was tested, and the TGI was > 100 µM.
For `O=C1Cc2c(-c3cccs3)cc(-c3ccccc3)nc2-c2ccccc2N1`, the TGI was > 100 µM.
For `COc1cc([C@@H]2c3cc4c(cc3[C@H](OC3OC5COC(c6ccco6)OC5C(O)C3O)C3COC(=O)[C@@H]32)OCO4)cc(OC)c1OC` (stereo not given in full), the TGI was > 100 µM.
Work on `CC(=O)c1ccc(Br)cc1NC1=CC(=O)c2ncccc2C1=O` yielded a TGI of 1.9 µM.
`C[N+]1([O-])C2CCC1CC(OC(=O)C(CO)c1ccccc1)C2` (stereo not given) was tested, and the TGI was > 100 µM.
`O=C1c2ccccc2-c2nnc3c(c21)Cc1ccccc1C3` was tested, and the TGI was > 10 µM.
`O=C1C=C(Nc2ccccc2)c2ccccc2C1=O` was tested, and the GI50 was 2.84 µM and the TGI was 9.06 µM.
With `N=C(N)SCc1ccc2c(c1)S(=O)(=O)c1ccccc1O2` the TGI was 42.6 µM.
In the case of `O=C(O)c1cc(CCc2ccc(O)c(O)c2)ccc1O`, the TGI is reported as > 100 µM.
In the case of `Nc1ccccc1N`, the TGI is reported as > 100 µM.
